About 540 (0.36%) of roughly 150,000 compounds showed an effect of 50% or more. This is one part of the list.

This assay deals with Plasmodium falciparum. Nature of the assay: Primary screen in NF54 nanoGlo assay, in single point, at 2uM, 72h; a lower Z score goes with more inhibition. It is filed as functional, Erythrocyte. The note with it: timepoint 72 hour.
By % Inhibition is commonly meant the drop in the measured response relative to a control, in per cent. Regarding `Cn1cc(CN2C[C@@H]3C[C@H](C2)c2ccc(-c4cccnc4)c(=O)n2C3)c2ccccc21`, the “% Inhibition” value was found to be 23% and the Z score is reported as -2.68.
The corresponding values for `CCCn1c(-c2cccc(C(=O)N3CCC4(CC3)OCCO4)c2)nc2cccnc21` are -22% and 2.95.
With `COc1ccc(C(=O)N2[C@H]3CC[C@@H]2c2cnc(C)nc2C3)cc1OC`, the “% Inhibition” value was -15% and the Z score was determined as 2.11.
`Cc1cc(N2CCC3CCC(C2)N3C)nc(C2CC2)n1` (stereo unspecified): the “% Inhibition” value is -6% and the Z score is 1.1.
The corresponding values for `CO[C@@H](Cn1cc(C(N)=O)c(-c2ccccc2)n1)C1CCCC1` are -5% and 0.97.
In the same order, the values of `CCc1nc(CN2CCN(C(C)C)[C@@H](C)C2)n[nH]1` are -9% and 1.72.
In the same order, the values of `Cc1ccc2c(c1)[C@H]1CN(C)CC[C@H]1N2C(=O)CCc1cnn(C)c1` are -16% and 1.71.
With `COCCN(CCOC)C(=O)CCc1ccc(S(=O)(=O)F)cc1`, the “% Inhibition” value is reported as -8% and the Z score was 0.92.
As to `Clc1cccc(C2(N[C@H]3CCOC3)CC2)c1`, the “% Inhibition” value is given as -4% and the Z score came out at 0.52.
In the same order, the values of `N[C@H]1C[C@@H]1c1ccc(Cl)cc1Cl` are 10% and -1.12.
In the same order, the values of `COCc1nc(NCCc2c[nH]cn2)c2cnn(C)c2n1` are -12% and 1.5.
In the same order, the values of `CN(CC1CCCCC1O)C(=O)NCC1CN2CCN1CC2` (stereo unspecified) are 11% and -2.02.
As to `Cc1ccnc(C(C)NC(C)Cc2cccc(O)c2)c1` (stereo unspecified), the “% Inhibition” value is given as -8% and the Z score was 0.91.
`c1ccc(-c2nnc(N3[C@@H]4CC[C@H]3[C@H]3CNC[C@H]34)s2)cc1`: the “% Inhibition” value is -11% and the Z score is listed as 2.2.
In the same order, the values of `O=C(Cc1ccsc1)N1CC(CF)C1` are -5% and 1.01.
The corresponding values for `CCOc1ccc(CN2CCN(CC3CC3)CC2)c(OCC)c1C` are -6% and 0.72.
The corresponding values for `CN(C)CC(=O)N1C[C@@H]2C[C@H](C1)c1c(-c3ccc4ccccc4c3)ccc(=O)n1C2` are -4% and 0.57.
In the case of `C[C@H]1CN(Cc2cccnc2)CCC1(F)F`, the “% Inhibition” value is listed as -17% and the Z score is 2.51.
The corresponding values for `Cc1ccc2nc(NC(=O)[C@@H]3CCCN3C(=O)Oc3ccccc3)sc2c1` are 4% and -0.79.
The corresponding values for `O=C(c1ccsn1)N1CCC(c2n[nH]c(=O)o2)CC1` are -8% and 1.59.
The corresponding values for `O=C(c1ccccc1)N1C[C@H](c2ccc3c(c2)OCO3)[C@@H]2[C@H]1C1CCN2CC1` are -2% and 0.23.
In the case of `Cc1ccc(OCc2c(C(=O)NC3CCCCC3)c(=O)cc(C)n2CCN2CCOCC2)cc1`, the “% Inhibition” value is reported as -10% and the Z score was 1.25.
In the same order, the values of `Cc1nn(C)c2c1N(C(=O)C1C(C)(C)C1(C)C)CCO2` are -6% and 0.87.
Take `Cc1ccc2c(c1)C(c1ccccc1)=N[C@@H](O)C(=O)N2`: the “% Inhibition” value stood at 5% and the Z score is reported as -0.65.
In the same order, the values of `Cc1cccc(CN2CCN3C(=O)N(C)C[C@H]3C2)n1` are 18% and -2.1.
In the same order, the values of `CC[C@H]1CCCCN1C(=O)c1cn(Cc2cccc(OC)c2)cc(C(=O)NCc2nccs2)c1=O` are -5% and 0.64.
In the same order, the values of `O=C(c1cccc(Cl)c1)[C@H]1CCCN(C2CCC2)C1` are -14% and 1.5.
For the compound `O=C(c1cn2cccnc2n1)N1C[C@@H](c2ccccc2)[C@@H]2[C@H]1C1CCN2CC1`, the “% Inhibition” value is -5% and the Z score amounted to 1.02.
In the same order, the values of `CCCN(CCN1CC2CCC(C1)O2)CC1CC1` are 1% and -0.11.
The corresponding values for `C#CCNC(C(C)C)C(O)c1ccccc1` (stereo unspecified) are -12% and 1.47.
In the same order, the values of `CN(C)c1cc(NC(=O)N2C3CCNCC2CC3)ncc1Br` (stereo unspecified) are -3% and 0.41.
With `CO[C@H]1CN(C(C)C)C[C@@H]1NC1CCCCC1`, the “% Inhibition” value was -7% and the Z score came to 0.73.
In the same order, the values of `COc1ccccc1[C@@H]1CN(c2nc(CO)cs2)[C@@H]2C3CCN(CC3)[C@@H]21` are -1% and 0.13.
In the same order, the values of `CN1CCO[C@@H]2CN(C(=O)Cc3cnn(C)c3)C[C@@H]21` are 21% and -2.62.
Take `O=C1NC(=O)C2(Cc3ccccc3N3CCC(c4ccccc4)CC32)C(=O)N1c1cc(Cl)ccc1Cl` (stereo unspecified): the “% Inhibition” value is 32% and the Z score is recorded as -3.65.
As for `c1ccc2c(C3CCNCC3)ccnc2c1`, the “% Inhibition” value is recorded as 14% and the Z score is reported as -1.84.
For the compound `Cc1ccc(-c2cn(CC(=O)Nc3ccccc3C)c(=O)o2)cc1`, the “% Inhibition” value is on record as -11% and the Z score is on record as 1.84.
In the same order, the values of `O=C(c1onc2c1CCCC2)N1C[C@H]2CC[C@@H](C1)N(CC1CC1)C2` are 4% and -0.56.
In the same order, the values of `COC1CCN(C[C@H]2CCCCCN2C(=O)COc2ccc(F)cc2)CC1` are 1% and -0.1.
For the compound `CN(Cc1ccccc1)C(=O)c1nn(Cc2ccccc2)c2nccc(-c3cccs3)c12`, the “% Inhibition” value is -1% and the Z score is recorded as 0.14.
In the same order, the values of `CN(CC1=CCCCC1)Cc1n[nH]c(=O)o1` are 5% and -0.5.
The corresponding values for `Cc1cc2c(cc1-c1c(C#N)c(N)nc3c1N1CCC3CC1)OCCO2` are -6% and 0.95.
The corresponding values for `O=S1(=O)C[C@@H]2[C@H](C1)N(c1ncccn1)CCN2Cc1ccccn1` are 0% and 0.03.

(Values after ChEMBL document CHEMBL4888484, “Replenishing the malaria drug discovery pipeline: Screening and hit evaluation of the MMV Hit Generation Library 1 (HGL1) against asexual blood stage Plasmodium falciparum ,using a nano luciferase reporter read-out” (2022).)
